The campaign covered roughly 330,000 compounds. About 560 (0.17%) were called active. The inconclusive results got no clear call from the source; some entries with a clear call stand among them for comparison. Calls follow the shape of the dose curve; as a rule, active = well fitted inhibition curve with a large enough effect; inconclusive = small, poorly fitted or top-dose-only effect, or effect the other way; inactive = flat fitted curve, though single readings scatter. Potencies of inconclusive entries are left out as doubtful fits.
Each molecule was assayed against ATP-dependent 6-phosphofructokinase (Trypanosoma brucei brucei) (UniProt O15648) (assay: qHTS Assay to Find Inhibitors of T. brucei phosphofructokinase). Conditions: T. brucei PFK, ADP-Glo luminescence; series mostly up to 57.5 µM.
UniProt O15648, sequence (O15648 whole entry, looked up): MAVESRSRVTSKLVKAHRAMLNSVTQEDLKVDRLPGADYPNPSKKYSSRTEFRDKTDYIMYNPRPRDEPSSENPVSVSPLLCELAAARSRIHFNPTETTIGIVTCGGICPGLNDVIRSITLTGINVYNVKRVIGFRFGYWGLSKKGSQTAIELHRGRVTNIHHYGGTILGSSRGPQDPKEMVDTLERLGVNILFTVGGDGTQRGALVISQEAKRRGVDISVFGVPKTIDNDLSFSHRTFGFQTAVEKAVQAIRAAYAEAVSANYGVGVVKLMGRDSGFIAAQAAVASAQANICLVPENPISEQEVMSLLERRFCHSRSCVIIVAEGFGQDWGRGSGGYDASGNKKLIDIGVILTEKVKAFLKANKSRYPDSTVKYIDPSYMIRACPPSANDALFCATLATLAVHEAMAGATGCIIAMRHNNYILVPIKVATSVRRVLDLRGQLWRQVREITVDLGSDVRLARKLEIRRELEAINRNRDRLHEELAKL
Procedure, shortened: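 Luminescent ADP detection (ADP-Glo, two-step: ATP depletion then ADP-to-ATP conversion for luciferase) reported PFK activity after 45 min room-temperature reaction of 1.25 nM enzyme with 0.5 mM F6P and 0.1 mM ATP at pH 8.0.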
`CC(/C=N/n1c(COc2ccccc2)n[nH]c1=S)=C\c1ccco1` was tested, and the Potency was “inactive”.
`Cn1nnnc1Sc1ncnc2scc(-c3cccs3)c12` was tested, and the Potency was inconclusive [falling, single point].
For `CCC(C(=O)Nc1ccc2c(c1)OCCO2)n1nnc2ccccc2c1=O` (configuration not stated), the Potency was “inactive”.
For `O=C(Nc1ccccc1)Nc1csc2ccccc12`, the Potency was “inactive”.
For `S=C1CCSc2ccc(Cl)cc2N1`, the Potency was inconclusive [falling, partial curve].
With `CN(C)CCCNc1cc(O)c2ncccc2c1` the Potency was inconclusive [falling, single point].
For `COc1ccc(CCNc2cc(N3CCN(C(=O)c4ccccc4F)CC3)ccc2[N+](=O)[O-])cc1OC`, the Potency was “inactive”.
With `CC(C)CC(=O)C1CCCN(C(=O)c2ccc3oc(Cc4ccccc4)nc3c2)C1` (configuration not stated) the Potency was inconclusive [falling, single point].
With `C=C(C)C(=O)Nc1cccc(C2=NOC3(C2)C[C@H](C(N)=O)N(C(=O)CC)C3)c1` (some centres not stated) the Potency was inconclusive [falling, partial curve].
In the case of `CC(NC(=O)C1CCN(C(=O)c2cccs2)CC1)c1ccc(S(N)(=O)=O)cc1` (configuration not stated), the Potency is reported as inconclusive [activator, partial curve].
For `CC(=O)c1ccc(NCC2COc3ccccc3O2)c([N+](=O)[O-])c1` (configuration not stated), the Potency was inconclusive [falling, single point].
With `CCn1c(Cc2ccccc2)nnc1SCC(=O)c1c(N)n(C2CC2)c(=O)[nH]c1=O` the Potency was “inactive”.
With `NS(=O)(=O)c1ccc(NC(=S)NC2CCCC2)cc1` the Potency was inconclusive [falling, partial curve].
With `O=C(C1=C(O)C(=O)N(CCOCCO)C1c1cccc([N+](=O)[O-])c1)c1cccs1` (configuration not stated) the Potency was inconclusive [falling, partial curve].
For `Cc1ccc(C)n1C(Cc1ccccc1)C(=O)O` (configuration not stated), the Potency was inconclusive [falling, single point].
For `O=C(Nc1ccc(C(=O)O)cc1)/C(=C\c1ccc2c(c1)OCO2)NC(=O)c1ccco1`, the Potency was inconclusive [activator, single point].
With `COc1ccc(N2C(=O)NC(NS(=O)(=O)c3ccccc3)(C(F)(F)F)C2=O)cc1` (configuration not stated) the Potency was “inactive”.
In the case of `COc1cccc(C(=O)NC(=S)Nc2ccc([N+](=O)[O-])cc2C)c1`, the Potency is reported as “inactive”.
With `Cc1ccc(S(=O)(=O)N2CCOCC2)cc1NC(=O)CSc1ccc(Cl)cc1` the Potency was inconclusive [falling, single point].
`O=C(O)CC1S/C(=N/N=C/C=C/c2ccccc2[N+](=O)[O-])NC1=O` (configuration not stated) was tested, and the Potency was inconclusive [activator, partial curve].
For `O=S(=O)(NCCCN1CCOCC1)c1ccc(Cl)s1`, the Potency was “inactive”.
In the case of `Cc1cc(C)nc(SCC(=O)c2ccc(F)cc2F)n1`, the Potency is reported as inconclusive [falling, single point].
For `NC(N)=N/N=C/c1ccc(OCc2ccc(Cl)cc2)cc1`, the Potency was “inactive”.
In the case of `Oc1ccc(/C=N/Nc2ncnc3c2ncn3Cc2ccccc2)cc1O`, the Potency is reported as “inactive”.
With `Cn1cccc1/C=N/n1c(-c2ccccc2)n[nH]c1=S` the Potency was “inactive”.
In the case of `Cc1ccc(Oc2nc3c(c(=O)n(Cc4ccccc4F)c(=O)n3C)n2C)cc1`, the Potency is reported as “inactive”.
For `O=C(NN=C1CCCC1)c1cccs1`, the Potency was inconclusive [falling, single point].
With `Cc1coc2c(C)c3oc(=O)c(CCC(=O)N4CCC(C(=O)NCCCC(=O)O)(c5ccccc5)CC4)c(C)c3cc12` the Potency was “inactive”.
In the case of `COc1ccc(/C=N/NC(=O)c2ccc3ccccc3c2)cc1OS(=O)(=O)c1ccc(NC(C)=O)cc1`, the Potency is reported as “inactive”.
`Cc1nc2ccccc2nc1OCC(=O)NCc1ccc2c(c1)OCO2` was tested, and the Potency was “inactive”.
`Cc1oc2ccccc2c1-c1cn2c(n1)SCC2` was tested, and the Potency was inconclusive [activator, single point].
In the case of `CC1CCCC(C)N1C(=O)COC(=O)/C=C/c1ccco1` (configuration not stated), the Potency is reported as inconclusive [falling, single point].
`O=C(Cc1ccc(Cl)cc1)Nc1cccc(C(=O)Nc2ccccc2C(=O)O)c1` was tested, and the Potency was inconclusive [falling, single point].
For `Fc1ccc(NC(=S)NCc2ccccc2)cc1`, the Potency was “inactive”.
With `O=C(/C=C/c1cccs1)Nc1sc2c(c1C(=O)O)CCCC2` the Potency was inconclusive [activator, single point].
In the case of `O=C(CN1CCN(S(=O)(=O)c2ccccc2)CC1)Nc1ccc(Cl)c([N+](=O)[O-])c1`, the Potency is reported as inconclusive [falling, partial curve].
For `O=C(NCCCNc1ccc([N+](=O)[O-])cc1)C(F)(F)F`, the Potency was inconclusive [falling, single point].
In the case of `CC(=O)Oc1ccc2c(c1)Oc1cc(OC(C)=O)ccc1C21OC(=O)c2ccccc21`, the Potency is reported as “inactive”.
In the case of `COc1ccc(/C=C2\SC(=S)N(CCC(=O)Nc3ccc(C(=O)O)cc3)C2=O)cc1OC`, the Potency is reported as inconclusive [falling, single point].
With `COc1ccc(CCN2C(=O)CC(N3CCC(C(N)=O)CC3)C2=O)cc1OC` (configuration not stated) the Potency was inconclusive [falling, partial curve].
`COc1ccc([C@@H]2CC(=O)c3c(O)cc(O[C@@H]4OC(CO[C@@H]5OC(C)[C@H](O)[C@H](O)C5O)[C@@H](O)[C@@H](O)C4O)cc3O2)cc1O` (some centres not stated) was tested, and the Potency was inconclusive [falling, partial curve, poor fit].
In the case of `CN(c1ccccc1)c1ccc(/C=C/[N+](=O)[O-])cc1`, the Potency is reported as inconclusive [falling, partial curve].
In the case of `C=CCn1c(COc2cccc(C)c2)nnc1SCC(=O)NC(=O)NCc1ccco1`, the Potency is reported as inconclusive [falling, partial curve].
With `O=S(=O)(Nc1ccc(Br)cc1)c1cccc(NC(=S)NCCN2CCOCC2)c1` the Potency was “inactive”.
In the case of `S=c1nc(C23CC4CC(CC(C4)C2)C3)[nH][nH]1`, the Potency is reported as inconclusive [falling, single point].
For `O=C(O)CN1C(=O)C(=O)N(Cc2ccc(Cl)c(Cl)c2)C1=O`, the Potency was inconclusive [activator, single point].
With `Cc1ccc(OCC(=O)N(C)CC(=O)NCc2ccco2)c(Br)c1` the Potency was inconclusive [falling, single point].
With `O=C1/C(=C\c2cc(Br)cc(Br)c2O)SC(=S)N1Cc1ccccc1` the Potency was “inactive”.
With `COc1ccc(S(=O)(=O)Nc2ccccc2C)cc1` the Potency was “inactive”.
In the case of `COC1=C(N)C(=O)c2nc(-c3nc(C(=O)O)c(C)c(-c4ccc(OC)c(OC)c4O)c3N)ccc2C1=O`, the Potency is reported as inconclusive [activator, partial curve, poor fit].
In the case of `CC1CCN(C(=O)COC(=O)c2cc([N+](=O)[O-])ccc2N2CCOCC2)CC1`, the Potency is reported as inconclusive [falling, single point].
In the case of `COc1ccc(CC2=CC(=O)c3ccccc3C2=O)cc1`, the Potency is reported as inconclusive [falling, partial curve].
In the case of `CCOc1cc(/C=C2\NC(=O)NC2=O)cc([N+](=O)[O-])c1O`, the Potency is reported as inconclusive [activator, single point].
For `CCCCn1c2c(c(=N)c3c1CCC3)CCC2`, the Potency was “inactive”.
In the case of `CC(C)OCCCNC(=S)Nc1ccc(S(N)(=O)=O)cc1`, the Potency is reported as active: 26.9 µM.
`Cc1ccc(NC(=O)c2ccc(Nc3c([N+](=O)[O-])cc([N+](=O)[O-])cc3[N+](=O)[O-])cc2)cc1` was tested, and the Potency was “inactive”.
`O=C1CCc2cc(S(=O)(=O)NCCC(=O)N3CCN(c4cccc(Cl)c4)CC3)ccc2N1` was tested, and the Potency was active: 26.9 µM.
For `O=C(NNC(=O)c1ccccc1O)c1cc2ccccc2o1`, the Potency was inconclusive [activator, partial curve].
With `Cc1c(Br)c(O)c(Br)c(O)c1/C=N/n1c(-c2ccccc2)n[nH]c1=S` the Potency was “inactive”.
In the case of `O=C1C=C(c2ccc(Cl)cc2)C(=O)N1Nc1ccccc1`, the Potency is reported as inconclusive [falling, single point].
`c1ccc(CSc2nnnn2-c2ccc3c(c2)OCCO3)nc1` was tested, and the Potency was inconclusive [falling, single point].
With `O=C(/C=C/c1ccco1)NCc1ccc(F)cc1` the Potency was inconclusive [falling, single point].
For `CCCCN(C(=O)c1cccc(-n2cccc2)c1)c1c(N)n(CCC)c(=O)[nH]c1=O`, the Potency was inconclusive [falling, partial curve].
`C/C(=N\NC(=O)Cc1cccn1C)c1ccco1` was tested, and the Potency was “inactive”.
For `N#C/C(=C\c1cccs1)C(=O)c1ccccc1Cl`, the Potency was inconclusive [falling, single point].
`CC1CCN(S(=O)(=O)N2CCC(C(=O)NCCN3CCOCC3)CC2)CC1` was tested, and the Potency was inconclusive [falling, partial curve].
With `N=c1ccn(Cc2c(Cl)cccc2Cl)cc1` the Potency was “inactive”.
With `NNC(=O)c1cc(NS(=O)(=O)c2cccs2)cc(NS(=O)(=O)c2cccs2)c1` the Potency was inconclusive [falling, single point].
For `O=[N+]([O-])c1ccc(Cl)c(S(=O)(=O)Nc2ccc(-c3ccc(N4CCCC4)nn3)cc2)c1`, the Potency was inconclusive [activator, full curve, poor fit].
`O=C(Nc1nncs1)c1cccnc1Cl` was tested, and the Potency was inconclusive [falling, single point].
With `COC1=C/C(=C/c2c(N)n3nc(CC(=O)N4CCCC4)sc3nc2=O)C=CC1=O` the Potency was “inactive”.
For `O=C(O)c1ccc(-c2ccc(/C=C3\NC(=O)N(Cc4ccc(Cl)cc4)C3=O)o2)cc1Cl`, the Potency was “inactive”.
Also: nearly all actives have a fitted effect of over 60% in size.
Potency is read from the fitted curve at half-maximal effect; tags tell the direction and shape of the fitted curve.
